Data reported in article PMC10924461, “Structure and ligand binding in the putative anti-microbial peptide transporter protein, YejA” (Microbiology, 2024).
No constants are given. Whether binding was seen depends on the method and setting. Some entries that bind do so weakly or less than the wild type.

T1: YejA, periplasmic solute-binding protein of the YejABEF ABC transporter from E. coli (E. coli K12) (UniProt P33913)
T1 sequence: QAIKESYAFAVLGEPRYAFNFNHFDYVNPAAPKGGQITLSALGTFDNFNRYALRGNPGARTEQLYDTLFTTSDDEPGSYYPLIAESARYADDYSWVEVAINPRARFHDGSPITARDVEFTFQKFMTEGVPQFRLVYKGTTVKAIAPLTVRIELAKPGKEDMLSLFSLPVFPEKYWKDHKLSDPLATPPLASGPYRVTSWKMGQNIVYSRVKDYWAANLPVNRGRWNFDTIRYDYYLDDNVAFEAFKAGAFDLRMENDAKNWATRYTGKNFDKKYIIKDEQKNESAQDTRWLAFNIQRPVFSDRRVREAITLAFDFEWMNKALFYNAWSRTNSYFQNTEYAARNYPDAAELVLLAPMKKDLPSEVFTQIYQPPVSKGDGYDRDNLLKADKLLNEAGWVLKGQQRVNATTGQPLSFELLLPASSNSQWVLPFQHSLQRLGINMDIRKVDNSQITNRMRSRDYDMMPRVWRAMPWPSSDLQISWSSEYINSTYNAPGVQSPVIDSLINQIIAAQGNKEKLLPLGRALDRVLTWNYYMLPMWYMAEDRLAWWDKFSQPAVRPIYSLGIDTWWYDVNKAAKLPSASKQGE


Tests used:
[1] = biological target: T1, YejA, periplasmic solute-binding protein of the YejABEF ABC transporter from E. coli (E. coli K12); experiment: SEC-MALS; YejA at 1 mg ml^-1 or 3 mg ml^-1 in 20 mM Tris-HCl pH 8.0, 50 mM NaCl on Superdex 200 10/300; both purified
[2] = biological target: T1, YejA, periplasmic solute-binding protein of the YejABEF ABC transporter from E. coli (E. coli K12); experiment: native MS; ESI-MS of purified YejA with co-purifying peptides in 1 M ammonium acetate, ion funnel voltage 100 eV (complexes preserved) or 200 eV (dissociation favoured)
[3] = biological target: T1, YejA, periplasmic solute-binding protein of the YejABEF ABC transporter from E. coli (E. coli K12); experiment: thermal shift assay (SYPRO orange); 0.5 mg ml^-1 (7.3 µM) YejA, 5x SYPRO orange, 25 µl, 25-96 °C in 1 °C/30 s steps; synthetic peptides added; a shift greater than 3 °C taken as significant; both purified

Row | Binder | binding [2] | further results
1 | YejA, periplasmic solute-binding protein of the YejABEF ABC transporter from E. coli (protein, UniProt P33913 20-604) QAIKESYAFAVLGEPRYAFNFNHFDYVNPAAPKGGQITLSALGTFDNFNRYALRGNPGARTEQLYDTLFTTSDDEPGSYYPLIAESARYADDYSWVEVAINPRARFHDGSPITARDVEFTFQKFMTEGVPQFRLVYKGTTVKAIAPLTVRIELAKPGKEDMLSLFSLPVFPEKYWKDHKLSDPLATPPLASGPYRVTSWKMGQNIVYSRVKDYWAANLPVNRGRWNFDTIRYDYYLDDNVAFEAFKAGAFDLRMENDAKNWATRYTGKNFDKKYIIKDEQKNESAQDTRWLAFNIQRPVFSDRRVREAITLAFDFEWMNKALFYNAWSRTNSYFQNTEYAARNYPDAAELVLLAPMKKDLPSEVFTQIYQPPVSKGDGYDRDNLLKADKLLNEAGWVLKGQQRVNATTGQPLSFELLLPASSNSQWVLPFQHSLQRLGINMDIRKVDNSQITNRMRSRDYDMMPRVWRAMPWPSSDLQISWSSEYINSTYNAPGVQSPVIDSLINQIIAAQGNKEKLLPLGRALDRVLTWNYYMLPMWYMAEDRLAWWDKFSQPAVRPIYSLGIDTWWYDVNKAAKLPSASKQGE |  | binding [1]: binds weakly
2 | VLGEPRYAFNFNH | binds | 
3 | VLGEPRYAFNFNHFDY | binds | 
4 | AVLGEPRYAFNFNHFDY | binds | 
5 | AFAVLGEPRYAFNFNHFDY | binds | 
6 | LGEPR |  | binding [3]: no binding (tested: 5 mg ml^−1 (8.76 mM))
7 | YAFNFN |  | binding [3]: no binding (tested: 2.5 mg ml^−1 (3.23 mM))
